The other results are listed elsewhere or left out. The main result of the screen is listed elsewhere. These columns were measured beside it and carry no call. Numbered stars: 1 amine (or outer) side, 2 acyl side, 3 side chain; on linkers, the order of the positions; unused ones are H or OH. Square brackets hold non-standard residues; d marks the D form. Peptide text beside a SMILES is read from it. X2 = O=C([C@@H](CC(O)CCl)O[*:1])[*:2]; aIle = CC[C@@H](C)[C@H](N)C(=O)O; NMeV = CN[C@H](C(=O)O)C(C)C; NMeA = CN[C@@H](C)C(=O)O; βAla = NCCC(=O)O
Columns and labels:
Assay in all cases: Primary Screen for Target Class Profiling of Small Molecule Inhibitors of Methyltransferases
[1] = biological target: Glycine N-methyltransferase (Homo sapiens) (UniProt Q14749); details: purified enzyme, MTase-Glo SAH luminescence; measured here: GNMT inhibition; at 40 µM; stronger effect = lower value
Method in brief: (§1)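 Each enzyme was assayed with SAM and its substrate. SAH formation detected by MTase-Glo luminescence; single-point 40 uM screen[…].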

[2] = biological target: Guanidinoacetate N-methyltransferase (Homo sapiens) (UniProt Q14353); details: purified enzyme, MTase-Glo SAH luminescence; measured here: GAMT inhibition; at 40 µM; stronger effect = lower value
Method in brief: as §1

[3] = biological target: Histamine N-methyltransferase (Homo sapiens) (UniProt P50135); details: purified enzyme, MTase-Glo SAH luminescence; measured here: HNMT inhibition; at 40 µM; stronger effect = lower value
Method in brief: as §1

[4] = biological target: Nicotinamide N-methyltransferase (Homo sapiens) (UniProt P40261); details: purified enzyme, MTase-Glo SAH luminescence; measured here: NNMT inhibition; at 40 µM; stronger effect = lower value
Method in brief: as §1

[5] = biological target: Phenylethanolamine N-methyltransferase (Homo sapiens) (UniProt P11086); details: purified enzyme, MTase-Glo SAH luminescence; measured here: PNMT inhibition; at 40 µM; stronger effect = lower value
Method in brief: as §1
On the % scale 0 is the no-effect control and ±100 the full control effect.

CN(CCc1ccccn1)C[C@H]1CN2CC[C@H]1C[C@@H]2CNC(=O)Nc1ccsc1
activity change, negative = inhibition [1]: -0.818%
activity change, negative = inhibition [2]: 1.85%
activity change, negative = inhibition [3]: -52.5%
activity change, negative = inhibition [4]: 3.69%
activity change, negative = inhibition [5]: -1.95%

COC(=O)[C@@]1(C)C(=O)C=C[C@]2(C)c3c(O)cc(C(C)C)cc3[C@H](O)[C@@H](OC(C)=O)C12 (stereo not given in full)
activity change, negative = inhibition [1]: -0.562%
activity change, negative = inhibition [2]: 7.08%
activity change, negative = inhibition [3]: 5.67%
activity change, negative = inhibition [4]: -5.11%
activity change, negative = inhibition [5]: 5.58%

COc1cc(NC(=O)N2Cc3ccccc3-n3cccc3C2c2ccccc2)cc(OC)c1 (stereo not given)
activity change, negative = inhibition [1]: 6.33%
activity change, negative = inhibition [2]: 0.103%
activity change, negative = inhibition [3]: 5.46%
activity change, negative = inhibition [4]: 7.1%
activity change, negative = inhibition [5]: 5.26%

CCC1c2cccn2-c2ccccc2CN1C(=O)Nc1ccc(C)cc1 (stereo not given)
activity change, negative = inhibition [1]: -1.8%
activity change, negative = inhibition [2]: 0%
activity change, negative = inhibition [3]: -1.72%
activity change, negative = inhibition [4]: -3.3%
activity change, negative = inhibition [5]: 2.01%

CCOc1ccc(C2c3cccn3-c3ccccc3CN2C(=O)Nc2cc(OC)ccc2OC)cc1 (stereo not given)
activity change, negative = inhibition [1]: -3.61%
activity change, negative = inhibition [2]: -0.308%
activity change, negative = inhibition [3]: 2.9%
activity change, negative = inhibition [4]: -1.74%
activity change, negative = inhibition [5]: -0.109%

CC(=O)[C@H]1CC[C@H]2[C@@H]3CC[C@H]4C[C@H](O)CC[C@]4(C)[C@H]3C(=O)C[C@]12C
activity change, negative = inhibition [1]: -0.532%
activity change, negative = inhibition [2]: 9.33%
activity change, negative = inhibition [3]: 3.99%
activity change, negative = inhibition [4]: -2.6%
activity change, negative = inhibition [5]: 10.6%

CC(=O)c1c(O)c(C)c(O)c(Cc2c(O)c3c(c(C(=O)/C=C/c4ccccc4)c2O)OC(C)(C)C=C3)c1O
activity change, negative = inhibition [1]: -32.4%
activity change, negative = inhibition [2]: 8.61%
activity change, negative = inhibition [3]: 0.318%
activity change, negative = inhibition [4]: -9.6%
activity change, negative = inhibition [5]: -4.53%

CCOCCCNC(=O)N1Cc2ccccc2-n2cccc2C1c1ccccc1C (stereo not given)
activity change, negative = inhibition [1]: 7.28%
activity change, negative = inhibition [2]: 0.709%
activity change, negative = inhibition [3]: 1.43%
activity change, negative = inhibition [4]: 3.15%
activity change, negative = inhibition [5]: 4.01%

CCc1ccc(C2c3cccn3-c3ccccc3CN2C(=O)Nc2cccc(Br)c2)cc1 (stereo not given)
activity change, negative = inhibition [1]: 3.97%
activity change, negative = inhibition [2]: 0.601%
activity change, negative = inhibition [3]: -2.07%
activity change, negative = inhibition [4]: 2.64%
activity change, negative = inhibition [5]: 4.2%

COc1ccccc1N1CCNCC1
activity change, negative = inhibition [1]: 6.37%
activity change, negative = inhibition [2]: 8.91%
activity change, negative = inhibition [3]: 4.81%
activity change, negative = inhibition [4]: -9.64%
activity change, negative = inhibition [5]: -2.35%

C=C1CC[C@H]2[C@@H](/C=C(\C)C(=O)[C@@]3(OC(C)=O)C[C@H](C)[C@H](OC(=O)c4ccccc4)[C@@H]3[C@H]1OC(C)=O)C2(C)C
activity change, negative = inhibition [1]: 0.464%
activity change, negative = inhibition [2]: -14.1%
activity change, negative = inhibition [3]: 7.84%
activity change, negative = inhibition [4]: -24.7%
activity change, negative = inhibition [5]: -12.5%

COCC1CN(C2CCC2)CC12CCN(Cc1ccncc1)CC2 (stereo not given)
activity change, negative = inhibition [1]: -2.19%
activity change, negative = inhibition [2]: -0.564%
activity change, negative = inhibition [3]: -4.06%
activity change, negative = inhibition [4]: -7.59%
activity change, negative = inhibition [5]: -9.2%

COc1ccc(C2c3cccn3-c3ccccc3CN2C(=O)NCCc2ccccc2)cc1 (stereo not given)
activity change, negative = inhibition [1]: 2.42%
activity change, negative = inhibition [2]: 2.55%
activity change, negative = inhibition [3]: -13.4%
activity change, negative = inhibition [4]: -12.1%
activity change, negative = inhibition [5]: -5.74%

COc1ccc2[nH]c(-c3ccccc3)c(CCN(C)C)c2c1
activity change, negative = inhibition [1]: 0.325%
activity change, negative = inhibition [2]: 1.81%
activity change, negative = inhibition [3]: 6.7%
activity change, negative = inhibition [4]: -14.7%
activity change, negative = inhibition [5]: 1.93%

CC[C@@H](C)[C@@H]1NC(=O)[C@@H]2CCCN2C(=O)[C@@H](CC(O)CCl)OC(=O)CCNC(=O)[C@H](C)N(C)C(=O)[C@H](C(C)C)N(C)C1=O (stereo not given in full) (cyclo([NMeA][βAla][X2]P[aIle][NMeV]))
activity change, negative = inhibition [1]: 0%
activity change, negative = inhibition [2]: 6.52%
activity change, negative = inhibition [3]: 5.8%
activity change, negative = inhibition [4]: -8.91%
activity change, negative = inhibition [5]: 5.33%

COC1CC(=O)C23C(=O)NC(CC(C)C)C2C(C)=C(C)C(OO)C3/C=C(\C)CCC(O)C1O (stereo not given)
activity change, negative = inhibition [1]: 2.36%
activity change, negative = inhibition [2]: 8%
activity change, negative = inhibition [3]: 7.69%
activity change, negative = inhibition [4]: -4.66%
activity change, negative = inhibition [5]: 7.55%

COc1ccc2c3c([nH]c2c1)C(C=C(C)C)N1C(=O)C2CCCN2C(=O)C1C3 (stereo not given)
activity change, negative = inhibition [1]: -1.24%
activity change, negative = inhibition [2]: -0.354%
activity change, negative = inhibition [3]: 8.03%
activity change, negative = inhibition [4]: -13.9%
activity change, negative = inhibition [5]: -9.45%

Cc1cc(C)cc(NC(=O)N2Cc3ccccc3-n3cccc3C2C(C)C)c1 (stereo not given)
activity change, negative = inhibition [1]: -0.524%
activity change, negative = inhibition [2]: 0%
activity change, negative = inhibition [3]: 6.91%
activity change, negative = inhibition [4]: 7.08%
activity change, negative = inhibition [5]: 6.34%

COc1ccc(NC(=O)N2Cc3ccccc3-n3cccc3C2c2cccc(C)c2)c(OC)c1 (stereo not given)
activity change, negative = inhibition [1]: 11.8%
activity change, negative = inhibition [2]: 0%
activity change, negative = inhibition [3]: 10.8%
activity change, negative = inhibition [4]: 4.84%
activity change, negative = inhibition [5]: 6.02%

C[C@]12CC[C@H](O)C[C@H]1CC[C@@H]1[C@@H]2[C@H](O)C(=O)[C@]2(C)[C@@H](c3ccc(=O)oc3)CC[C@]12O
activity change, negative = inhibition [1]: 1.84%
activity change, negative = inhibition [2]: 5.2%
activity change, negative = inhibition [3]: 6.26%
activity change, negative = inhibition [4]: -7.56%
activity change, negative = inhibition [5]: 2.65%

CN1c2cccnc2CNCC[C@H]1CO
activity change, negative = inhibition [1]: -3.37%
activity change, negative = inhibition [2]: -8.1%
activity change, negative = inhibition [3]: -10.5%
activity change, negative = inhibition [4]: -9.25%
activity change, negative = inhibition [5]: -4.75%

COc1ccc(C(=O)NC[C@H]2C[C@@H]3CCN2C[C@@H]3c2cc(-c3cccs3)nn2C)cc1
activity change, negative = inhibition [1]: -0.543%
activity change, negative = inhibition [2]: -1.75%
activity change, negative = inhibition [3]: -9.91%
activity change, negative = inhibition [4]: -6.83%
activity change, negative = inhibition [5]: -20.4%

CSc1ccc(C2c3cccn3-c3ccccc3CN2C(=O)Nc2ccccc2C(F)(F)F)cc1 (stereo not given)
activity change, negative = inhibition [1]: -2.21%
activity change, negative = inhibition [2]: 2.41%
activity change, negative = inhibition [3]: 1.19%
activity change, negative = inhibition [4]: -6.29%
activity change, negative = inhibition [5]: 2.15%

Cc1cccc(NC(=O)N2Cc3ccccc3-n3cccc3C2c2cccc(Cl)c2)c1C (stereo not given)
activity change, negative = inhibition [1]: 4.69%
activity change, negative = inhibition [2]: 0.482%
activity change, negative = inhibition [3]: -0.586%
activity change, negative = inhibition [4]: 3.01%
activity change, negative = inhibition [5]: 2.71%

Cc1cc(C)cc(NC(=O)N2Cc3ccccc3-n3cccc3C2c2ccc(Cl)cc2)c1 (stereo not given)
activity change, negative = inhibition [1]: 0.387%
activity change, negative = inhibition [2]: 0%
activity change, negative = inhibition [3]: 3.64%
activity change, negative = inhibition [4]: 4.33%
activity change, negative = inhibition [5]: 3.65%

CCOc1ccc(C2c3cccn3-c3ccccc3CN2C(=O)Nc2ccc(F)cc2)cc1 (stereo not given)
activity change, negative = inhibition [1]: 0.282%
activity change, negative = inhibition [2]: 0%
activity change, negative = inhibition [3]: 7%
activity change, negative = inhibition [4]: 6.37%
activity change, negative = inhibition [5]: 5.74%

CC(=O)c1cccc(NC(=O)NC[C@H]2C[C@@H]3CCN2C[C@@H]3c2cc(-c3ccc(F)cc3)nc(C)n2)c1
activity change, negative = inhibition [1]: -73.6%
activity change, negative = inhibition [2]: -9.32%
activity change, negative = inhibition [3]: -19.9%
activity change, negative = inhibition [4]: -39.5%
activity change, negative = inhibition [5]: -12%

CCOc1ccc(NC(=O)N2Cc3ccccc3-n3cccc3C2c2ccc(N(C)C)cc2)cc1 (stereo not given)
activity change, negative = inhibition [1]: 12.2%
activity change, negative = inhibition [2]: 0%
activity change, negative = inhibition [3]: 8%
activity change, negative = inhibition [4]: 3.71%
activity change, negative = inhibition [5]: 5.1%

C=C1C[C@]2(O)[C@@]3(C)CCC(=O)C(C)(C)C3=C(O)C(=O)[C@@]2(C)[C@@H]2C(=O)O[C@@](C)(C(=O)OC)C(=O)[C@@]12C
activity change, negative = inhibition [1]: 1.76%
activity change, negative = inhibition [2]: -2.7%
activity change, negative = inhibition [3]: 7.56%
activity change, negative = inhibition [4]: -13.8%
activity change, negative = inhibition [5]: 0.559%

Reference: PubChem BioAssay AID1745853 (National Center for Advancing Translational Sciences (NCATS), 2022)
